Patent publication US10017546B2 (KOREA ADVANCED INSTITUTE OF SCIENCE AND TECHNOLOGY, priority 2015, dated 2018)

Assays:
biotin-DNA = test: Binding titration of MA-Ft with biotinylated DNA probe; conditions: supported by titration
Procedure: FIG. 18 illustrates binding titration of MA-Ft with a biotinylated DNA probe. 0.1 μM of MA-Ft was titrated with varying concentrations of biotin-DNA (0-4 μM). […] Clear levels of free biotin-DNA were observed only with over 2.4 μM of biotin-DNA.

HeLa cells = test: Clustering and internalization of biotinylated cell-surface proteins; assay type: cell-based; conditions: Cy5-labeled avidin proteins, 37° C.
Procedure: (§1) Following biotinylation, the cells were washed twice with cold PBS-CM, treated with 100 mM glycine in PBS-CM for blocking, and washed again twice with cold PBS. […] Unbound avidin proteins were removed, and media was replaced with pre-warmed DMEM (37° C.). Cells were incubated for 5, 10, or 30 m at 37° C. Cells were washed, and fixed with 4% formaldehyde in PBS for confocal imaging (ZEISS, LSM510 META). To visualize endosome or lysozome-specific proteins, cells were fixed, permeabilized, and incubated with a primary antibody: anti-Rab11 (a GTPase of recycling endosome, Abcham) or anti-LAM P1 (Lysosomal-associated membrane protein 1, Abcham). Afterward, cells were incubated with a fluorescent secondary antibody (goat anti-rabbit 555, Abcham), and images were acquired with a confocal microscopy (ZEISS, LSM510 META).

SOAS2 cells = test: as above; assay type: cell-based
Procedure: as §1

U2OS cells = test: as above; assay type: cell-based
Procedure: as §1

B1: MA-Ft: monodin fused to 24-meric human ferritin via protein G linker (SEQ ID NO: 10) (protein)
chain: MFDASNFKDFSSIASASSSWQNQHGSTMIIQVDSFGNVSGQYVNRAEGTGCQNSPYPLTGRVNGTFIDFSVKWNNSTENCNSNTQWTGYAQVNGNNTEIVTRWNLKYEGGSGPAIWQGQDTFQYVPTTEAEAAAKEAAAKEAAAKATYKLVINGKTLKGETTTKAVDAETAEKAFKQYANDYGVDGVWTYDDATKTFTVTEKPEVIDASELTPAVTTYKLVINGKTLKGETTTKAVDAETAEKAFKQYANDYGVDGVWTYDDATKTFTVTEGGGGSGSGGGG[about 200 residues cut from this listing]
modifications: amino acid sequence of MA-Ft
- biotin binding sites (biotin-DNA): 24
- incubation time after which avidin protein was internalized (HeLa cells): 5 min
- internalization by clustering (SOAS2 cells): Rapid internalization
- internalization by clustering (U2OS cells): Rapid internalization
